# In PubChem BioAssay AID1460 (National Center for Advancing Translational Sciences (NCATS), 2008):
# The whole screen tested about 270,000 compounds, of which about 5,800 (2.1%) were called active. This list was built around the results that the source calls inconclusive (neither active nor inactive); the mix of calls is not that of the screen. Calls follow the shape of the dose curve; as a rule, active = well fitted inhibition curve with a large enough effect; inconclusive = small, poorly fitted or top-dose-only effect; inactive = flat fitted curve, though single readings scatter. Potencies of inconclusive entries are doubtful fits and often do not repeat.
# Target: Microtubule-associated protein tau (Homo sapiens) (UniProt P10636)
# Chain of UniProt P10636 (P10636 whole entry, looked up): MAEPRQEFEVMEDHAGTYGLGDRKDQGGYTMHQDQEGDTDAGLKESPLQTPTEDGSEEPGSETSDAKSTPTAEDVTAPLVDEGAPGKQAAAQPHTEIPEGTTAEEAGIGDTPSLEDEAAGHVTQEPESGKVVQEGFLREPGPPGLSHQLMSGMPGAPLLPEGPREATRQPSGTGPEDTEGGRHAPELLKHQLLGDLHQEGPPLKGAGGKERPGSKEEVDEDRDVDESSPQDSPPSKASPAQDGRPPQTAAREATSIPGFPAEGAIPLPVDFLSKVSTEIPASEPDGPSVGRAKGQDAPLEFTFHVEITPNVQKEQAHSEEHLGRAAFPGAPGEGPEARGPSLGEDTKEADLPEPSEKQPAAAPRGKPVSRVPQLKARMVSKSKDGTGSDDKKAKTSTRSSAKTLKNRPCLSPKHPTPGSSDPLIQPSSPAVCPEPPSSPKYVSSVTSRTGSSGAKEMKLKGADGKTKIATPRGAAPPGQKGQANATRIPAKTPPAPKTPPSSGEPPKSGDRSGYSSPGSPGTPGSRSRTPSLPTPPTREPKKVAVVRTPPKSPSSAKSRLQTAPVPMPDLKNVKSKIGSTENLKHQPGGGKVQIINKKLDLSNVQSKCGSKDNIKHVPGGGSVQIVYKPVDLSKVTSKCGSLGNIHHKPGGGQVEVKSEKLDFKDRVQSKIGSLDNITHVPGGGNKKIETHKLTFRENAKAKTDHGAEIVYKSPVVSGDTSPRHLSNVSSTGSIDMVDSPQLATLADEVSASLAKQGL
# Assay: qHTS for Inhibitors of Tau Fibril Formation, Thioflavin T Binding; also: nearly all actives have a fitted effect of over 55% in size
# Conditions: recombinant tau K18 P301L (four-repeat tau fragment), heparin-induced fibrillization, ThT fluorescence; series mostly up to 57.4 µM; activity, negative = inhibition: at the top concentration
# Procedure, shortened: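 Aggregation was driven by heparin (20 uM final) acting on recombinant tau […] bearing P301L in 100 mM sodium acetate pH 7; fibrils were detected with Thioflavin T.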
# % is scaled to controls: 0 for no effect and ±100 for the full control effect; potency is read from the fitted curve at half-maximal effect; tags tell the direction and shape of the fitted curve.
SMILES,Potency,"activity, negative = inhibition"
CCOc1ccc(N2C(=O)CC(N)C2=O)cc1 (centres undefined),"inconclusive: 20 µM [inhibitor, partial curve]",–
CC(C)CCn1nnnc1CN1CCN(C(c2ccccc2)c2ccccc2)CC1,"inconclusive: 10 µM [inhibitor, partial curve]",–
Cc1ccc(-n2c(C)cc(/C=N/NC(=O)c3ccc(CN4CCOCC4)cc3)c2C)cc1,"inconclusive: 15.8 µM [inhibitor, partial curve, poor fit]",–
CCC(=O)/C=C1/Sc2ccc(OC)cc2N1CC,"inconclusive: 25.1 µM [inhibitor, single point]",–
CCN(CC)CCNc1nc(-c2ccco2)c2c(c1C#N)CC(C)(C)OC2,–,inactive: -4.12%
COc1cccc(-n2cc3c(c2-c2ccccc2)c(=O)n(C)c(=O)n3C)c1,"inconclusive: 25.1 µM [inhibitor, single point]",–
Cc1ccc(NC(=O)CSc2nc(-c3cccs3)nc3cc(=O)[nH]n23)cc1,–,inactive: -1.62%
CC(=O)n1c(C=Nc2ccccc2)c(O)c2ccccc21,"inconclusive: 14.1 µM [inhibitor, partial curve]",–
O=[N+]([O-])c1ccc(NCCCN2CCOCC2)c([N+](=O)[O-])c1,"inconclusive: 8.91 µM [inhibitor, partial curve]",–
COc1cc(SC)ccc1C(=O)Nc1ccc(C)cc1C,"inconclusive: 2.24 µM [inhibitor, full curve]",–
Nc1c(C(=O)N2CCCC2)sc2nc3c(cc12)CCCCCC3,–,inactive: -14.6%
CCC[N+](CC#Cc1ccccc1)(CCC)CC(=O)c1ccc(Cl)cc1,"inconclusive: 0.501 µM [inhibitor, partial curve, poor fit]",–
CCc1nn(CCCC(=O)N2CCc3ccccc3C2)c(=O)c2cc3occc3n12,"inconclusive: 15.8 µM [inhibitor, partial curve]",–
COC(=O)c1cnc(NCc2ccc(F)cc2)c2ccccc12,–,inactive: -6.81%
Cc1cc(F)ccc1S(=O)(=O)Nc1ccc2c(c1)CCCN2C(=O)c1cccs1,–,inactive: -3.77%
Cc1ccc(-c2cc3nn(-c4ccccc4)c(N)c3c(=O)o2)cc1,"inconclusive: 7.08 µM [inhibitor, partial curve]",–
COc1cccc(CNc2ccc(F)c(Cl)c2)c1OC,"inconclusive: 39.8 µM [inhibitor, single point]",–
Cc1ccc(Nc2c(N)c(=O)oc3ccccc23)cc1,"inconclusive: 17.8 µM [inhibitor, partial curve]",–
CC(C)CC(COCc1cccc(Cl)c1)N1CCN(C(=O)c2ccc(C(F)(F)F)cc2)CCC1=O (centres undefined),"inconclusive: 31.6 µM [inhibitor, single point]",–
COc1ccc(CC(=O)NCC(c2ccc(N(C)C)cc2)N2CCOCC2)cc1 (centres undefined),"inconclusive: 12.6 µM [inhibitor, partial curve]",–
CC(C)c1ccc(NC(=O)NC2CCN(CC(=O)Nc3cccc4ccccc34)CC2)cc1,"inconclusive: 28.2 µM [inhibitor, single point]",–
C#CCSc1nnc(-c2sc3ccccc3c2Cl)o1,"inconclusive: 10 µM [inhibitor, partial curve]",–
C=CCOc1ccc2cccc(/C=N/NC(=O)c3cc4cc([N+](=O)[O-])ccc4s3)c2c1,"inconclusive: 12.6 µM [inhibitor, partial curve]",–

SMILES,Potency,"activity, negative = inhibition"
Cn1c(=O)[nH]c(=O)c2c1nc(N1CCCCC1)n2CCCSc1nc2ccccc2s1,"inconclusive: 15.8 µM [inhibitor, partial curve]",–
COc1cc(OC)c(OC)cc1/C=C1\CCC(C2CCCC2)C1=O (centres undefined),"inconclusive: 25.1 µM [inhibitor, single point]",–
COC(=O)N1[C@H]2CC[C@@]3(C)C=C(C)O[C@]1(C)C3c1ccccc12,–,inactive: -4.46%
Cc1cccc(C(=O)NCCc2n[nH]c(=S)n2C)c1,"inconclusive: 8.91 µM [activator, single point]",–
Nc1ccc2oc(-c3ccc4nc[nH]c4c3)nc2c1,active: 14.1 µM,–
c1ccc(-c2cn3nc(-c4ccccc4)c(-c4ccccc4)nc3n2)cc1,"inconclusive: 28.2 µM [activator, partial curve]",–
O=C(Cn1[nH]c(=O)c2ccccc2c1=O)Nc1ccc(-c2nnc3n2CCCCC3)cc1,"inconclusive: 1.26 µM [inhibitor, full curve]",–
CC(=C\c1ccco1)/C=C1/SC(=S)N(CC(=O)O)C1=O,active: 3.98 µM,–
CCOc1ccc(C2NC(=O)C(C#N)=C(S)N2c2ccc(OC)cc2)cc1OC (centres undefined),"inconclusive: 31.6 µM [inhibitor, single point]",–
COc1ccc(Cc2nnc(SCC(=O)N3CCCC(C)C3)o2)cc1 (centres undefined),–,inactive: 5.77%
Cc1ccnc(NC(=O)CCC(=O)N(CC(=O)NCc2ccccc2)Cc2cccs2)c1,–,inactive: 3.09%
Cc1ccc(Nc2nnc(-c3ccc(C)c(S(=O)(=O)N4CCOCC4)c3)c3ccccc23)c(C)c1,"inconclusive: 35.5 µM [inhibitor, single point]",–
O=C(/C=C/c1ccccc1)Nc1cccc(S(=O)(=O)Nc2ccccc2F)c1,"inconclusive: 28.2 µM [inhibitor, single point]",–
COc1ccc(N2C(=O)CC(Sc3n[nH]c(-c4ccccc4)n3)C2=O)cc1 (centres undefined),"inconclusive: 8.91 µM [inhibitor, partial curve, poor fit]",–
O=C1N=c2ccccc2=C1c1sc(=S)n(Cc2ccccc2Cl)c1O,"inconclusive: 10 µM [inhibitor, partial curve]",–
CCOC(=O)c1ccc(NS(C)(=O)=O)cc1,–,inactive: -9.98%
O=C(CSc1ncc2c(n1)-c1ccccc1N(Cc1ccccc1)S2(=O)=O)Nc1ccccc1,–,inactive: 9.39%
O=C(COc1ccccc1)NC(=S)Nc1cccc(NC(=O)c2ccccc2Cl)c1,–,inactive: 14%
COc1ccc(C(=O)C(/C=N/O)=N/Nc2ccc(F)cc2)cc1,"inconclusive: 15.8 µM [inhibitor, partial curve]",–
CCCN1C(=O)C(Cc2nc3ccccc3c(=O)n2-c2ccccc2)c2cc(C)ccc21 (centres undefined),"inconclusive: 22.4 µM [inhibitor, single point]",–
CC(=O)N(Cc1ccc(F)cc1)C1=C(NCCc2ccccc2)C(=O)c2ccccc2C1=O,active: 28.2 µM,–
CC(C)CN(Cc1c(O)ccc2ccccc12)CC(C)C,"inconclusive: 15.8 µM [inhibitor, partial curve]",–
COc1ccc(C(=O)NCCc2sc(-c3ccc(Cl)cc3)nc2C)c(OC)c1,"inconclusive: 10 µM [inhibitor, partial curve]",–

SMILES,Potency,"activity, negative = inhibition"
O=C1OCCC1Sc1nnc(-c2ccco2)o1 (centres undefined),–,inactive: 0.257%
C=CCC(C)(O)/C=C/c1ccccc1 (centres undefined),–,inactive: -0.874%
Cc1ccc(NC(=O)Cn2c(=O)n(-c3ccccc3)c(=O)c3c4c(sc32)CCCC4)cc1,"inconclusive: 14.1 µM [activator, partial curve]",–
Cc1nnc(N2CCC(C(=O)NC3CCCCC3)CC2)c2nn(-c3ccc(Cl)cc3)c(C)c12,"inconclusive: 39.8 µM [inhibitor, single point]",–
CCOc1ccc(NC(=O)c2c(NCc3ccc(C)o3)sc3c2CCC(C)C3)cc1 (centres undefined),"inconclusive: 12.6 µM [inhibitor, partial curve]",–
NC(C(=O)O)c1cc(O)cc(O)c1 (centres undefined),–,inactive: 4.85%
C[C@@H]1OC(Nc2ccc(N=Nc3ccccc3)cc2)[C@H](O)[C@H](O)[C@H]1O (some centres undefined),"inconclusive: 11.2 µM [inhibitor, partial curve]",–
Cc1cccc(NC(=O)CCCCCN2C(=O)c3ccccc3C2=O)n1,–,inactive: 7.33%
COc1ccc(OC)c(CCNC(=O)c2c(C)nn(-c3ccc(F)cc3)c2-n2cccc2)c1,"inconclusive: 39.8 µM [inhibitor, single point]",–
Cc1ccc(-c2cc(C(F)(F)F)n3ncc(C(=O)N4CCN(C)CC4)c3n2)cc1,–,inactive: 1.45%
CC1(C)CC(C(CCN(Cc2ccccc2)C(=O)c2ccco2)c2ccc(F)cc2)CCO1 (centres undefined),"inconclusive: 28.2 µM [inhibitor, single point]",–
CCN(CC)c1ccc2cc(NC(=O)CCC(=O)O)c(=O)oc2c1,"inconclusive: 28.2 µM [activator, partial curve]",–
Cc1onc(-c2ccccc2Cl)c1C(=O)OCN1C(=O)c2ccccc2C1=O,–,inactive: -9.49%
CCOc1ccc(C(=O)NCC(c2ccc3c(c2)OCO3)N2CCN(c3ccccc3F)CC2)cc1 (centres undefined),"inconclusive: 10 µM [inhibitor, partial curve, poor fit]",–
COc1ccc(OC)c(NC(=O)CN(C)S(=O)(=O)c2ccc3[nH]c4c(c3c2)CCCC4)c1,–,inactive: -0.94%
C#CC(=O)N(c1ccc(OC)c(OC)c1)C(C(=O)NC1CCCC1)c1cccs1 (centres undefined),"inconclusive: 14.1 µM [inhibitor, partial curve]",–
CCOc1ccc(NC(=O)c2c(NC(=O)Cc3ccccc3)sc3c2CCC(C)C3)cc1 (centres undefined),"inconclusive: 35.5 µM [inhibitor, single point]",–
CCOC(=O)C1(C)/C(=N/Nc2ccccc2Cl)C(=O)C(=O)N1c1ccccc1 (centres undefined),active: 14.1 µM,–
COC(=O)c1ccc(C(=O)OC)c(NC(=S)N2CCCCC2C)c1 (centres undefined),"inconclusive: 31.6 µM [inhibitor, single point]",–
CCc1cc(C(=O)N2CCCC(CCC(=O)NCc3cccc(OC)c3)C2)no1 (centres undefined),–,inactive: -3.95%
Cc1nnc(SCC2=C(C(=O)O)N3C(=O)C(NC(=O)Cn4nc(C(F)F)cc4C)C3SC2)s1 (centres undefined),"inconclusive: 31.6 µM [inhibitor, single point]",–
COc1ccc(Cc2nnc(N)s2)cc1OC,–,inactive: -2.5%
CCOC(=O)c1ccc(-c2ccc(/C=C(\C#N)C(=O)Nc3ccc(OCC)cc3)o2)cc1,active: 1.41 µM,–
